Reference: the supplement of paper PMC3334620
The full ranking holds about 33,000 sequences; the median of “E-score (-0.5 to 0.5)” is about -0.056, and the highest 2% start at about 0.38. The list shows a part of the results.

Each sequence was assayed against Stb4 (UniProt P50104) (assay: PBM E-score (8-mer binding enrichment) (E-score (-0.5 to 0.5)); higher = stronger / more preferred TF binding; most listed sequences are background and not binding sites). Settings: protein concentration: 200 nM; construct: GST-DNA-binding domain.
Summary of the method: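 Full-length yeast transcription factors or their DNA-binding domains, GST-tagged and expressed with PURExpress, were applied at about 100-200 nM to universal all-10-mer Agilent arrays. These arrays had been made double-stranded by primer extension on fresh or once-stripped slides. Detection used fluorescent anti-GST, normalisation used masliner, and E-scores for ungapped eight-base words pooled with reverse complements came from the Universal PBM Analysis Suite.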

Sequence	PBM E-score
ACGCCCCG	0.172
CCTGACAC	-0.0977
CGGCGCCA	0.11
CAGAGCCG	0.237
GATAGTGC	0.0586
ACTAATGG	0.0197
ACCGTCGC	0.188
ACGCATAC	-0.00984
ACATGACT	-0.282
CGCAGTCA	-0.185
ACCTGTGG	0.0316
CTATTGCA	-0.0693
CTCAGGAG	-0.226
ACGGCTGC	0.112
CACCAGTG	-0.322
CCATCGAA	-0.16
CAGACTAG	-0.358
CGCTGGAC	-0.131
AGTTTCAC	-0.256
CAGTTCCC	0.203
CAGTTGGG	-0.244
ATAATCGA	-0.0635
ACTTCCGC	0.379
AGAGTGGG	-0.103
ACATTAAT	-0.0324

Sequence	PBM E-score
CTTCAATC	0.0447
CGGAGGGC	0.126
ATAACCCA	-0.0904
GATTGTCA	0.0614
CCGTTGGA	0.00392
AGAGAGAG	-0.38
AACCTAGC	0.0506
CAATTCCC	0.0982
CATTGCAC	-0.0371
TGCGTCAA	-0.147
TCCGACGA	0.386
AGAACCCT	-0.113
CAAATAGA	-0.0992
CTCCTAGA	-0.242
AGCTGTTA	-0.218
GTACAAGA	-0.191
ATTGAGCA	-0.234
AAGCTGTA	-0.0663
ACCCTCGA	-0.165
AAAATGAC	0.0259
CTCTGTGA	-0.33
CGTACCAA	-0.0228
ACGTGATG	-0.0799
ACCACGAA	-0.214
GTGGACGA	-0.172

Sequence	PBM E-score
AAACAGCG	-0.148
AGAGCCGA	0.39
AGCTTTCC	0.2
ATCCGAAC	0.475
AGGTGAGA	-0.0994
GGCTATTA	0.106
CTAGTACA	-0.126
AGCCGTCG	0.145
AGGGAAGA	-0.277
ACTGCGCG	-0.101
AAATACTG	-0.168
CACGGAGG	0.134
CAAGTATA	-0.0492
CATACGGG	0.152
ATGGCAGC	-0.171
AGGAAAAC	-0.0217
CTCACTGC	-0.0364
TTTAAAAA	-0.0431
GACTATTA	-0.12
ATAACGAT	-0.0395
AGGGAATC	-0.127
CATGTAGG	-0.0845
ATGGATAA	0.024
TCGACAAA	-0.0114
GCTAGCCC	-0.0688

Sequence	PBM E-score
ATTTTCAG	-0.0712
GGTAAGAA	0.118
ATCCTCTA	-0.0427
AGTAATGC	0.0258
AACCGAGA	0.407
ATTCGTAG	0.0347
CACGCGGG	0.12
CGAGGCTC	0.134
GTAAACCA	0.204
CTAGCGGA	0.0447
CTCCCCAC	-0.184
GGATATTA	0.292
ACCTTACG	-0.111
AGATGCAT	-0.192
CAACTCAG	-0.192
ATGGCTAG	-0.0941
ATAGCTTA	-0.106
AACGTCGG	0.297
CATGATGC	-0.212
AGGAGACC	-0.188
GCAGCCCC	0.00147
ATGGCGCG	0.0151
CGTGTGCC	-0.105
CCGTGCGC	0.222
ATCCAGAG	-0.166

Sequence	PBM E-score
GTGCAAAA	-0.231
AGTCAGCG	-0.00255
GAACCACC	0.218
CTTGACGC	-0.109
TCCCCTAA	-0.0984
TCGCAAGA	-0.118
ACTGCTGC	-0.137
GTCGGAGA	0.294
CACCCAAA	-0.0471
CTGCGTAA	-0.0547
ACCAATAA	-0.204
CTTTTGCA	-0.181
CCATAGGA	-0.392
TCCAGGAA	-0.03
AAATTCAG	-0.017
AGCCGAAT	0.426
ACGTATTC	0.0489
AACGCTGG	-0.181
CCTTATCG	0.118
GCTTCGCC	-0.243
AGGTACGC	-0.0999
ACCAGCTG	-0.268
ACTTGCGG	0.0786
TACGTACA	0.0359
AAGTCAGG	0.0343

Sequence	PBM E-score
GGCCCCAA	-0.136
CGCTAGGC	-0.118
CATATCAA	0.00716
AAGATAGA	-0.183
CAGGTATA	-0.148
GAGGTCCA	-0.071
CAAACTGG	-0.167
GCAGTAGC	-0.16
AACGAATA	-0.0723
CACCCTCG	0.0812
ACGGGGAT	0.0997
CTTGGGTC	-0.202
AGGCAATA	-0.11
TTGGAAAA	-0.0054
AGCTGTTG	-0.071
TCGAGTAA	-0.0675
AGGCGCCT	-0.296
ATGAGAAG	-0.262
ACGCGAGC	-0.00272
AGTACGAC	-0.185
AGGAGAAG	-0.166
AGCCATTC	-0.155
CTTGTCAA	-0.0589
AATAATAT	0.176
CACGTGTA	-0.0718

Sequence	PBM E-score
CCACATGG	-0.125
GACATCTA	-0.0505
AAGTCTGA	-0.33
CGAGGCCG	0.202
CTAGGGAC	-0.132
CACAGAAC	-0.212
GTGTCTCA	-0.139
CAGCCATA	-0.145
AGCTTCGC	-0.276
TATTGTGA	-0.161
AAAGACTA	0.0612
CGTCCTAG	-0.043
CCCCATCA	-0.137
CAGCTATC	-0.089
ATCTAATA	-0.245
CGTAGATC	0.0274
ACTAGACA	-0.0461
ATCCCCAT	-0.077
ATGTATGC	0.026
CCGTACGC	0.126
CAAGGGAG	-0.0824
GCGGGAGC	0.155
